Results: ChEMBL document CHEMBL1201862, “PubChem BioAssay data set” (2004)
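Values below derive from 48-hour exposures of cells grown in 96-well plates, with endpoints linearly interpolated between the two concentrations bracketing the appropriate inhibition level. GI50 marks 50% less growth.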 Calls of active or inactive are those of the source. Cut-off read from the data, not from the text of the source: active = GI50 up to about 1.1 µM and inactive = higher.

What was measured:
Assay in all cases: NCI anticancer screen, dose series, 48 h
MDA-MB-231 = test system: MDA-MB-231
SNB-19 = test system: SNB-19
HCC 2998 = test system: HCC 2998
786-0 = test system: 786-0
LOX IMVI = test system: LOX IMVI
KM12 = test system: KM12
CCRF-CEM = test system: CCRF-CEM
SW-620 = test system: SW-620
SK-MEL-28 = test system: SK-MEL-28
T47D = test system: T47D
RPMI-8226 = test system: RPMI-8226
SK-MEL-2 = test system: SK-MEL-2
NCI-H460 = test system: NCI-H460
MOLT-4 = test system: MOLT-4
HCT-15 = test system: HCT-15
TK-10 = test system: TK-10
UO-31 = test system: UO-31
SNB-75 = test system: SNB-75
A498 = test system: A498
NCI-H226 = test system: NCI-H226
BT-549 = test system: BT-549
CAKI-1 = test system: CAKI-1
COLO 205 = test system: COLO 205
MDA-N = test system: MDA-N
A549 = test system: A549
Malme-3M = test system: Malme-3M
U-251 = test system: U-251
HCT-116 = test system: HCT-116
HT-29 = test system: HT-29
MCF7 = test system: MCF7
UACC-62 = test system: UACC-62
SF-539 = test system: SF-539
K562 = test system: K562
OVCAR-8 = test system: OVCAR-8
OVCAR-4 = test system: OVCAR-4
MDA-MB-435 = test system: MDA-MB-435
IGROV-1 = test system: IGROV-1
HOP-92 = test system: HOP-92
OVCAR-3 = test system: OVCAR-3
EKVX = test system: EKVX
ACHN = test system: ACHN
Hs-578T = test system: Hs-578T
SN12C = test system: SN12C
SK-MEL-5 = test system: SK-MEL-5
SF-295 = test system: SF-295
HL-60 = test system: HL-60
SR = test system: SR
DU-145 = test system: DU-145
OVCAR-5 = test system: OVCAR-5
PC-3 = test system: PC-3
UACC-257 = test system: UACC-257
SK-OV-3 = test system: SK-OV-3
NCI-H522 = test system: NCI-H522
NCI-H23 = test system: NCI-H23
RXF 393 = test system: RXF 393
SF-268 = test system: SF-268
NCI/ADR-RES = test system: NCI/ADR-RES
M14 = test system: M14
HOP-62 = test system: HOP-62

Measured: GI50

COc1cccc2c1NC(=O)Cc1c-2[nH]c2ccc(Br)cc12
inactive: MDA-MB-231 = 65.2 µM | SNB-19 = 17.5 µM | HCC 2998 = 7.31 µM | 786-0 = 4.04 µM | LOX IMVI 62.1 µM | KM12 = 28.4 µM | CCRF-CEM > 100 µM | SW-620 = 75.9 µM | SK-MEL-28 = 41 µM | T47D 9.33 µM | RPMI-8226 = 23.7 µM | SK-MEL-2 = 28.2 µM | NCI-H460 = 14.6 µM | MOLT-4 = 8.49 µM | TK-10 = 20 µM | UO-31 = 18 µM | SNB-75 = 27.4 µM | A498 = 44.4 µM | NCI-H226 = 30.1 µM | BT-549 = 24.1 µM | CAKI-1 = 25.9 µM | COLO 205 = > 100 µM | MDA-N 28.4 µM | A549 = 8.22 µM | Malme-3M 11.8 µM | U-251 = 37.2 µM | HCT-116 = 9.71 µM | HT-29 = 9.18 µM | MCF7 = 6.05 µM | UACC-62 = 30.5 µM | SF-539 = 31 µM | K562 = 6.58 µM | OVCAR-8 = 12 µM | OVCAR-4 = 10.4 µM | MDA-MB-435 = 61.5 µM | IGROV-1 = 25.6 µM | HOP-92 = 55.8 µM | OVCAR-3 = 8.81 µM | EKVX 24.2 µM | ACHN 14.2 µM | Hs-578T 48.9 µM | SN12C 55 µM | SK-MEL-5 = 30.5 µM | SF-295 = 14.7 µM | HL-60 = 2.64 µM | SR 33.4 µM | DU-145 = 13.8 µM | OVCAR-5 = 29.6 µM | PC-3 = 13.3 µM | UACC-257 = 8.38 µM | SK-OV-3 = 23.2 µM | NCI-H522 = 27.5 µM | NCI-H23 = 43 µM | RXF 393 = 20.3 µM | SF-268 = 19.3 µM | NCI/ADR-RES 6.62 µM | M14 = 42.8 µM | HOP-62 = 8.65 µM
28.7 µM: HCT-15
